Assay results as given in PubChem BioAssay AID720707 (National Center for Advancing Translational Sciences (NCATS), 2013).
About 270 (0.075%) of roughly 360,000 compounds were called active. The inconclusive results got no clear call from the source; some entries with a clear call stand among them for comparison. Calls follow the shape of the dose curve; as a rule, active = well fitted activation curve with a large enough effect; inconclusive = small, poorly fitted or top-dose-only effect; inactive = no such curve, though single readings can be large or run the other way. Potencies of inconclusive entries are left out as doubtful fits.
Also: nearly all actives have a fitted effect of over 60% in size.
Potency is read from the fitted curve at half-maximal effect; tags tell the direction and shape of the fitted curve.

Each compound was assayed against Rap guanine nucleotide exchange factor 3 (Homo sapiens) (UniProt O95398) (assay: qHTS for Agonist of cAMP-regulated guanine nucleotide exchange factor 3 (EPAC1): primary screen). Conditions: biochemical assay; activation: at 154 µM (top of the series), 100% = response to 6.5 mM cAMP.
Sequence of UniProt O95398 (O95398 whole entry, looked up): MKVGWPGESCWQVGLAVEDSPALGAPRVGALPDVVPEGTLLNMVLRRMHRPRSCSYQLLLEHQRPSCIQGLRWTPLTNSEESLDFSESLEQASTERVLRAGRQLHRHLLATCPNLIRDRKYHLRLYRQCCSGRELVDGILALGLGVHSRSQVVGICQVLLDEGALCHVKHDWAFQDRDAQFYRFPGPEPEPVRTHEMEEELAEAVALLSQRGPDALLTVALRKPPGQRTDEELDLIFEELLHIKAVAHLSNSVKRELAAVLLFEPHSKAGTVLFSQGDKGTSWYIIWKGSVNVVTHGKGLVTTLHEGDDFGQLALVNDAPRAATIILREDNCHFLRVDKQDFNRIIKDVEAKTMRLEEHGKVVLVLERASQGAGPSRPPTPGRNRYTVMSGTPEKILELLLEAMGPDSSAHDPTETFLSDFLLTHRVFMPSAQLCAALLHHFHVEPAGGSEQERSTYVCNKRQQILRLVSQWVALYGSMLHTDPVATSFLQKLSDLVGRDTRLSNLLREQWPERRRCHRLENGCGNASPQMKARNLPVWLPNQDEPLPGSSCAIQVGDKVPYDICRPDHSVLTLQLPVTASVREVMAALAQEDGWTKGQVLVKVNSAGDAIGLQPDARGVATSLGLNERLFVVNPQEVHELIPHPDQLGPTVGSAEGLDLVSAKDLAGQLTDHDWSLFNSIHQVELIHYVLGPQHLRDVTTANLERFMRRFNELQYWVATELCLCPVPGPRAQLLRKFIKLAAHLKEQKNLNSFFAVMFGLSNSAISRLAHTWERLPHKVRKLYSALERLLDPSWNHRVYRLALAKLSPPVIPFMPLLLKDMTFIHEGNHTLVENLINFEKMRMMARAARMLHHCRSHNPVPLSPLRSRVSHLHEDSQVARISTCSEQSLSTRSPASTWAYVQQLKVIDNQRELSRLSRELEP
Source text: In multi-cellular eukaryotic organisms, the effects of cAMP are transduced by two ubiquitously-expressed intracellular cAMP receptors, the classic protein kinase A/cAMP-dependent protein kinase (PKA/cAPK) and the more recently discovered exchange protein directly activated by cAMP/cAMP-regulated guanine nucleotide exchange factor (EPAC/cAMP-GEF). Both PKA and EPAC are ubiquitously expressed in all tissues, and an increase in intracellular cAMP levels will lead to the activation of both PKA and EPAC. Therefore, careful dissections of the individual role and relative contribution of EPAC and PKA within the overall cAMP signaling in various model systems are critical for further elucidating the mechanism of cAMP signaling. To date no EPAC-specific antagonists and agonist, as well as isoform-specific agonists have been reported, and developing EPAC-specific pharmacological probes to determine the physiological functions that EPAC play in the overall cAMP-mediated signaling remains a major challenge within the research field. Furthermore, identified regulators of EPAC may lead to new mechanism-based therapeutic strategies specifically targeting the EPAC / cAMP-signaling components as EPAC has been implicated to play important roles in major human pathological conditions such as diabetes, heart disease, and cancer.
This qHTS will be used to screen the Molecular Libraries Small Molecule Repository (MLSMR) as a concentration-titration series using the NCGC unique quantitative screening (qHTS) platform to find activators for EPAC1. In addition, this assay will also be used as a counterscreen for the EPAC2 qHTS. This fluorescent based assay is developed and validated for EPAC1 that measures exchange using EPAC effector Rap1 complex with BODIPY-GDP, a GDP analog with a tethered fluorophores. Activators are identified by monitoring the change in fluorescence signal as the exchanged free BODIPY-GDP has a reduced fluorescence compared to Rap1-bound BODIPY-GDP. Increase in signal (activation) is the desired outcome for the EPAC1 agonist while no activity in this assay is desired for the EPAC2 agonist counterscreen.
[1] de Rooij, J., Zwartkruis, F. J., Verheijen, M. H., Cool, R. H., Nijman, S. M., Wittinghofer, A., and Bos, J.L. (1998) Nature 396, 474-477
NIH Chemical Genomics Center [NCGC]
NIH Molecular Libraries Probe Centers Network [MLPCN]
Assay Submitter (PI): Xiaodong Cheng, The University of Texas Medical Branch
Briefly, three uL of reagents (100 nM EPAC1, 250 nM RAP1B-BODIPY-GDP, 50 uM GDP) were dispensed into a 1536-well Greiner black solid-bottom medium binding assay plate. Controls and test compounds (23 nL) were transferred to the plate via a Kalypsys pin tool equipped with a 1536-pin array. The plates were centrifuged at 1,000 rpm for 15 seconds followed by 5 minute incubation at room temperature. The assay plates were read at 5 minute intervals for 30 minutes in the ViewLux plate reader using 480nm excitation and 540nm emission filters. The results were normalized to the agonist positive control of 6.5 mM cAMP.
With `CN(Cc1ccnc2ccccc12)C(=O)C1CCC(=O)N(Cc2ccccc2F)C1` (centres undefined) the Potency was inconclusive [activator, single point].
`CN(CC(=O)Nc1ccc(F)cc1)C(=O)COC(=O)c1ccccc1` was tested, and the Potency was inconclusive [activator, partial curve].
For `CCCCCCc1cc2cc(-c3nnc(-c4ccccc4O)o3)c(=O)oc2cc1O`, the Potency was inconclusive [activator, single point].
In the case of `CCOc1nc(OCC)nc(N2CCC(C)CC2)n1`, the “activation” value is reported as inactive: 0.541%.
In the case of `CCC1(c2ccccc2)NC(=O)N(CC(=O)Nc2ccc(OC)nc2)C1=O` (centres undefined), the Potency is reported as active: 100 µM.
`CCN(CC)c1ccc2cc(C(C)=O)c(=O)oc2c1` was tested, and the Potency was inconclusive [activator, partial curve].
For `COc1cccc(Oc2cn[nH]c2-c2ccc(OC)cc2O)c1`, the Potency was inconclusive [activator, full curve, poor fit].
`COc1ccc(OC)c(/C=c2\sc3nc(-c4cccs4)nn3c2=O)c1` was tested, and the Potency was active: 112 µM.
With `CCCn1c(=O)n(C)c(=O)c2c(SCC(=O)NCC(c3ccccc3)N(C)C)nc(CC(C)C)nc21` (centres undefined) the Potency was inconclusive [activator, full curve, poor fit].
For `C=CCn1nc(-c2ccccc2)cc1C(=O)OCC`, the “activation” value was inactive: 8.26%.
With `Oc1ccc(Cl)cc1CNc1cnc2ccccc2c1` the “activation” value was inactive: 5.34%.
`CCc1nnc(NC(=O)c2cc(-c3ccccn3)nc3ccc(Br)cc23)s1` was tested, and the Potency was inconclusive [activator, partial curve].
`COc1ccc(CCNC(=S)N2CCN(S(=O)(=O)c3ccc(F)cc3)CC2)cc1` was tested, and the Potency was inconclusive [activator, single point].
In the case of `COc1cccc(C(=O)Nc2cc(C(F)(F)F)ccc2Cl)c1`, the Potency is reported as inconclusive [activator, partial curve].
`CC[C@@]1(O)C(=O)OCc2c1cc1n(c2=O)Cc2cc3c(CN(C)C)c(O)ccc3nc2-1` was tested, and the Potency was inconclusive [activator, full curve].
With `O=C1NC(c2ccccc2)=C(c2nc3ccccc3s2)C(c2ccccc2)N1` (centres undefined) the Potency was inconclusive [activator, partial curve].
For `Cc1ccc(C(O)c2ncc(-c3ccccc3C(F)(F)F)[nH]2)cc1F` (centres undefined), the “activation” value was inactive: -15.1%.
With `NC(=O)c1cc(S(=O)(=O)N2CCCC2)ccc1OCCOc1ccccc1F` the Potency was inconclusive [activator, partial curve].
For `OC(c1cccc(Cl)c1)c1nc(-c2ccoc2)cs1` (centres undefined), the “activation” value was inactive: 2.27%.
In the case of `Cc1nn(-c2ccc(F)cc2)c(Cl)c1/C=N/NC(=O)c1cccc(S(=O)(=O)N2CCCC2)c1`, the “activation” value is reported as inactive: -1.95%.
With `CCc1cccc2c(C(=O)COC(=O)c3nccnc3N)c[nH]c12` the Potency was inconclusive [activator, single point].
With `N#C/C(=C\c1ccc(OC(=O)c2ccc(Cl)s2)cc1)c1nc2ccccc2[nH]1` the Potency was inconclusive [activator, partial curve].
In the case of `CN(CC(=O)Nc1cccc(F)c1)C(=O)/C=C/c1cc(Br)ccc1OC(F)F`, the Potency is reported as inconclusive [activator, partial curve, poor fit].
In the case of `Cc1ccc(C2(C)NC(=O)N(CC(=O)Nc3ccccc3N3CCCCC3)C2=O)cc1` (centres undefined), the Potency is reported as inconclusive [activator, single point].
`CCC(=O)NC(c1ccc(OC)cc1)c1cc(Cl)c2cccnc2c1O` (centres undefined) was tested, and the “activation” value was inactive: -7.29%.
With `CCOc1cc(NC(=S)NCC2CCCO2)c(OCC)cc1NC(=O)c1ccc(OC)cc1` (centres undefined) the Potency was inconclusive [activator, single point].
`CCOC(=O)/C(=C\c1ccc(N2CCC(c3ccccc3)=N2)cc1)C(C)=O` was tested, and the Potency was inconclusive [activator, full curve, poor fit].
`Cc1cc(CSc2ccc(Cl)cc2)ccc1N` was tested, and the “activation” value was inactive: 5.58%.
With `Cc1cc(/C=N/n2cnnc2)c(C)n1-c1ccc(OCc2ccc(F)cc2)cc1` the Potency was inconclusive [activator, partial curve].
For `Cc1ccc2nc(NC(=O)CCCc3nc4ccccc4s3)sc2c1`, the Potency was inconclusive [activator, partial curve].
For `COc1ccccc1OCC(=O)Nc1cccc(S(=O)(=O)NC2=NCCCCC2)c1`, the Potency was inconclusive [activator, single point].
In the case of `COC(=O)Cn1c(C)c(/C=C/c2cc[n+](C)cc2)c2ccccc21`, the Potency is reported as inconclusive [activator, single point].
In the case of `COc1cc(N=C2C(=O)N3c4c(cccc42)C(C)=CC3(C)C)cc(OC)c1`, the “activation” value is reported as inactive: -1.64%.
In the case of `Cc1ccccc1OCCC(=O)OCC(=O)NC1CCCCC1`, the Potency is reported as inconclusive [activator, partial curve, poor fit].
